Experimental data as given in PubChem BioAssay (EPA / NIEHS).
The list shows a part of the results, in another mix than the full data. Records with an inconclusive call do not appear. Where a structure was tested more than once in an assay, its records may differ in their call. Calls of active or inactive are those of the source. How the source made its calls: active means hit-call score of the fitted dose curve at least 0.9, where 1 is the maximum; inconclusive means response in the unintended direction; inactive means score below 0.9.

Target: Cellular tumor antigen p53 (Homo sapiens) (UniProt P04637)
Experiment: TOX21_p53_BLA_p2_ratio: Tox21 HCT-116 p53 Agonism Beta-lactamase Assay, Ratio, Phase 2 (AID 2283592)
Source text: TOX21_p53_BLA_p2 is a cell-based, single-readout assay that uses HCT116, a human intestinal cell line, […] in a 1536-well plate.TOX21_p53_BLA_p2_ratio is an assay readout measuring reporter gene via receptor activity and designed using inducible reporter (beta lactamase induction) detected with GAL4 b-lactamase reporter gene. The signal is derived from the ratio of cleaved (ch2) to uncleaved (ch1) reporter gene substrate used as the measure of target activity.Data from the assay component TOX21_p53_BLA_p2_ratio was analyzed into 1 assay endpoint. This assay endpoint, TOX21_p53_BLA_p2_ratio, was analyzed in the positive analysis fitting direction relative to DMSO as the negative control and baseline of activity. Using a type of inducible reporter, gain-of-signal activity can be used to understand changes in the reporter gene as they relate to the gene TP53. Furthermore, this assay endpoint can be referred to as a primary readout, because this assay has produced multiple assay endpoints and this ratio serves a reporter gene function to understand target activity. To generalize the intended target to other relatable targets, this assay endpoint is annotated to the DNA binding intended target family, where the subfamily is tumor suppressor.
Thawing Method: Place 14 mL of pre-warmed thaw medium into a 15 mL of conical tub. Remove the vial of cells to be thawed from liquid nitrogen and thaw rapidly by placing at 37C in a water bath with gentle agitation for 1-2 minutes. Decontaminate the vial by wiping with 70% ethanol before opening in a biological safety cabinet. Transfer the vial contents drop-wise into 14 mL of thaw medium in a sterile 15-mL conical tub. Centrifuge cells at 900 rpm for 4 minutes and resuspend in thaw medium. Transfer contents to the T75 tissue culture flask containing Thaw Medium and place flask in a humidified 37C/5% CO2 incubator. Switch to growth medium at first passage.Propagation Method: Aspirate medium, rinse once in DPBS, add 0.25% Trypsin/EDTA and swirl to coat the cell evenly. Add an equal volume of Growth Medium to inactivate Trypsin after 2-3 minutes incubation at 37C. Centrifuge cells at 900 rpm for 4 minutes and resuspend in growth medium. Cell should be passage or fed at least twice a week.Assay Protocol: Harvest cells from culture in growth medium and resuspend in assay medium. 2.2 Dispense 4000 cells/5 uL/well into 1536-well black/clear bottom plates using a Multidrop dispenser. After the cells were incubated at 37C for 5 hours, 23 nL of compounds dissolved in DMSO were transferred to the assay plate by a PinTool resulting in a 217-fold dilution. Incubate the plates for 16 hours at 37C, 5% CO2. Add 1 uL of 6X LiveBLAzer FRET B/G (CCF4-AM) Substrate Mixture to each well using a BioRAPTR dispenser and incubate the plates at room temperature for 2 hours. Measure fluorescence intensity at 460 and 530 nm emission and 405 nm excitation by an Envision detector. Data is expressed as the ratio of 460nm/530nm emissions. Add 4 uL of Cell-titer Glo to each well using BioRAPTR and incubate the plates at room temperature for 2 hours. Measure fluorescence intensity by a VewLux plate reader.

| Structure (SMILES) | outcome | AC50 |
| --- | --- | --- |
| C[C@]12C=CC(=O)C=C1CC[C@H]1[C@@H]3C[C@@H](O)[C@](O)(C(=O)CO)[C@@]3(C)C[C@H](O)[C@@]12F | inactive |  |
| C=C[Si](OCCOC)(OCCOC)OCCOC | inactive |  |
| CCC[C@H](N[C@@H](C)C(=O)N1[C@H](C(=O)O)C[C@@H]2CCCC[C@@H]21)C(=O)OCC | inactive |  |
| CCO/C([O-])=N/c1c[n+](N2CCOCC2)no1 | inactive |  |
| COCCOCCOCCO | inactive |  |
| C[C@]12CC[C@@H]3c4ccc(O)cc4CC[C@H]3[C@@H]1CC[C@H]2O |  | active: 14.9 µM |
| COc1c(O)cc2c(c1O)[C@@H]1O[C@H](CO)[C@@H](O)[C@H](O)[C@H]1OC2=O | inactive |  |
| CN(C)CC/C=C1/c2ccccc2COc2ccc(CC(=O)O)cc21 | inactive |  |
| COc1ccc(O)cc1 | inactive |  |
| Cc1ccccc1CCO | inactive |  |
| O=C1c2c(O)cccc2C([C@@H]2O[C@H](CO)[C@@H](O)[C@H](O)[C@H]2O)c2cc(CO)cc(O)c21 (some centres not stated) | inactive |  |
| O=C1OC2(c3ccccc31)c1cc(I)c(O)c(I)c1Oc1c2cc(I)c(O)c1I | inactive |  |
| CC(C)(C)c1ccc(O)c(C(C)(C)C)c1 |  | active: 54.5 µM |
| OCC(F)(F)F | inactive |  |
| c1ccc2[nH]cnc2c1 | inactive |  |
| C=CCCCCCCCCC=O | inactive |  |
| CCc1cccc2c3c([nH]c12)C(CC)(CC(=O)O)OCC3 (configuration not stated) | inactive |  |
| CC(=O)c1ccc2c(c1)[C@H](NC(=O)c1ccc(F)cc1)[C@@H](O)C(C)(C)O2 | inactive |  |
| CC(Cc1ccc(O)c(O)c1)C(C)Cc1ccc(O)c(O)c1 (configuration not stated) |  | active: 47.3 µM |

| Structure (SMILES) | outcome | AC50 |
| --- | --- | --- |
| O=C(O)CCC(=O)C(=O)O | inactive |  |
| COC(=O)C(CN)c1c[nH]c2ccc(OC)cc12 (configuration not stated) | inactive |  |
| Cc1ccccc1C(=O)Nc1ccc(C(=O)N2CCCC(O)c3cc(Cl)ccc32)c(C)c1 (configuration not stated) | inactive |  |
| Nc1ccc(C(=O)O)c(O)c1 | inactive |  |
| CCN(CC)CCOc1ccc(C(O)(Cc2ccc(Cl)cc2)c2ccc(C)cc2)cc1 (configuration not stated) |  | active: 43.5 µM |
| Oc1ccc(-c2ccc(O)cc2)cc1 |  | active: 45.4 µM |
| C=COCC1CCC(COC=C)CC1 (configuration not stated) | inactive |  |
| CCc1c(C)[nH]c2c1C(=O)C(CN1CCOCC1)CC2 (configuration not stated) | inactive |  |
| O=c1cc(-c2ccccc2)oc2cc(O)cc(O)c12 |  | active: 39.6 µM |
| Oc1cc(O)cc(O)c1 | inactive |  |
| CC(=O)[C@H]1CC[C@H]2[C@@H]3CCC4=CC(=O)CC[C@]4(C)[C@H]3CC[C@]12C | inactive |  |
| CC[C@H]1OC(=O)[C@H](C)[C@@H](O[C@H]2C[C@@](C)(OC)[C@@H](O)[C@H](C)O2)[C@H](C)[C@@H](O[C@@H]2O[C@H](C)C[C@H](N(C)C)[C@H]2O)[C@](C)(OC)C[C@@H](C)C(=O)[C@H](C)[C@@H](O)[C@]1(C)O | inactive |  |
| N#CCN(CC#N)CCN(CC#N)CC#N | inactive |  |
| N#C/C(=C1/SC[C@@H](c2ccc(Cl)cc2Cl)S1)n1ccnc1 | inactive |  |
| CC(C)Nc1nc(N)nc(Cl)n1 | inactive |  |
| NC[C@H]1O[C@H](O[C@H]2[C@H](O)[C@@H](O[C@H]3O[C@H](CO)[C@@H](O)[C@H](N)[C@H]3O)[C@H](N)C[C@@H]2N)[C@H](N)C[C@@H]1O | inactive |  |
| CC(=O)CCCCn1c(=O)c2c(ncn2C)n(C)c1=O | inactive |  |
| CCC1NC(=O)c2cc(S(N)(=O)=O)c(Cl)cc2N1 (configuration not stated) | inactive |  |
